Experimental data published in the supplement of paper PMC11417369.
± gives the standard deviation of the averaged measurements. Some of the results follow.

System: PfAP2-G AP2 domain (GST-tagged)
Assay: gcPBM binding intensity (ln(normalized median fluorescence intensity)); higher = stronger DNA binding
Method in brief: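 Each value is the highest Masliner-normalised natural-log median intensity across replicate spots of either orientation of a probe. The probes were primer-extended double-stranded 36-bp intergenic genomic sequences on an Agilent 4 × 180k array, alongside negative controls, exposed for 1 h to GST-tagged P. falciparum DNA-binding domains expressed in E. coli. Bound protein was picked up with Alexa488 anti-GST antibody and scanned at 488 nm.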

| Sequence | gcPBM binding intensity (ln) |
| --- | --- |
| ATTCATACATGCACACGTACATATTTAAATATAAAA [XGTACX_site8388] | 11.4 ± 0.72 |
| AAAAAAAAAAAAAAATCACACATTGGTTAAATATTA [CACACA_site5344] | 9.865 ± 0.007 |
| CTATCAAATAATAGCAAACACACAAAAAATAAAAAA [CACACA_site4147] | 9.96 ± 0.18 |
| AAAAAAAAAAGACACACACACACACGGACACATACA [CACACA_site7363] | 11.2 ± 0.57 |
| ATTTTTTATGAAAACATAAAAAAATGAGATAACCAT [CACACA_negctrl_site894] | 10.2 ± 0.28 |
| TATTTATACATACGTACACACAAATATTAAAATATA [CACACA_site7004] | 11.5 ± 0.96 |
| TAATTGATTCTTCACCGTACTCACACATATATATAT [XGTACX_site6530] | 11 ± 0.59 |
| ATTTTTTTTTTTTGTACATACCACATATACAAAACA [CACACA_negctrl_site1240] | 11.1 ± 0.67 |
| TTTTTTTTTTTCTCCATACACACTTGATAAAACTTT [CACACA_site615] | 10.1 ± 0.33 |
| ACTACGAGTCGTAGAGTGCAGTCTGGAGAAAAGTAC [GTGCAC_site9769] | 10.7 ± 0.48 |
| ATCAAGCACGAACACACACACACACGCACGCCCACA [CACACA_site6308] | 10.8 ± 0.61 |
| ATATATTATAAATGTAGTACCGTTACATAGTCATAG [XGTACX_site390] | 11.2 ± 0.76 |
| CACACCACCAACAAAAGTACATACATATATATATAT [XGTACX_site5781] | 11.3 ± 0.82 |
| TATATATTGCCCTTCACACACACACCCATATATATA [CACACA_site2493] | 10.3 ± 0.28 |
| TTTTTAGTTAATTAAACACACAAAAAAAAAAATAAA [CACACA_site3930] | 9.915 ± 0.064 |
| AATATTTTTATATATATACACACTTACATATATATA [CACACA_site3609] | 10.2 ± 0.39 |
| ATAATATTGTGGTATACACACCTTACAAAAAGGTAC [CACACA_site5582] | 10.8 ± 0.45 |
| AATATTTTGTTATTTATTTAATCTAATATTATGATA [GTGCAC_negctrl_site258] | 9.69 |
| ATATAATAGAAGTGTACACACATATTTATGGGTGTA [CACACA_site5686] | 11.5 ± 0.91 |
| TATATTTGGTTTCATTCATTTTTATAGAAATCTCAA [CACACA_negctrl_site1412] | 10.015 ± 0.007 |
| TATTTTTTTACATATTGTACATAATATAAAACTTAC [XGTACX_site8273] | 11 ± 0.59 |
| CACACGTATATATATACACACTAAAATACCCAGACA [CACACA_site6142] | 10.3 ± 0.17 |

| Sequence | gcPBM binding intensity (ln) |
| --- | --- |
| ATTTTTTCATATTCTACACACGTGAACAAATGTGTC [CACACA_site3007] | 10.2 ± 0.12 |
| GTATATAATTATATATGTACTAAATAAATATTTTTA [XGTACX_site6062] | 11 ± 0.73 |
| TATAAAAATAAATAAATAAATAAATAAATAAATAAA [TGCATGCA_negctrl_site310] | 9.41 ± 0.25 |
| ATGTAAGACAAAAAGGGTACATAATGCGTATGTATT [XGTACX_site4666] | 11.2 ± 0.69 |
| AAAAATTACCCATCCATACACACATATTTTTTTTAA [CACACA_site2190] | 10.2 ± 0.064 |
| TTTTCTAAAAAAAGTTGTACATCTTATTTATATTAT [XGTACX_site295] | 11.5 ± 1 |
| AAAAAATAAAAAAATAAAAAATAAAAAATAAAAAAT [TGCATGCA_negctrl_site90] | 9.46 ± 0.13 |
| CAAACAATTAAACAAACACACATATACAAGTATATA [CACACA_site8639] | 9.86 ± 0.11 |
| TATTATTCCAAGAAAAAAAAAAATAAAAAAAAAAAA [CACACA_negctrl_site1424] | 9.62 ± 0.13 |
| AAAGAACAAATAAAACATAAAATAATATATATAGAT [CACACA_negctrl_site1764] | 9.58 ± 0.23 |
| TATAAATCTATAAATGCACACAAGGGAAGAAAAACG [CACACA_site2965] | 10.4 ± 0.28 |
| ATTAAAATTTGTTAAAGTACTTAATAAAAATTTTTC [XGTACX_site1959] | 11 ± 0.71 |
| TGTATATCATAAGATGGTACACGTGTGTGCGTATGC [XGTACX_site2255] | 11.1 ± 0.67 |
| ATTCTTAAAAAAAAATGTACACATGAACAATATGTA [XGTACX_site362] | 11.5 ± 0.73 |
| AATGACTACATAATAGTGCAATATTAAAGAAAATTA | 10 ± 0.27 |
| AAATTATATAAAGGAACACACATTTTATTTTATTTT [CACACA_site1500] | 9.915 ± 0.078 |
| TATATTTTTATAATAACACACGATATATGTTTAGGA [CACACA_site1283] | 9.88 ± 0.13 |
| TATATATTATATATGTGTACTCACTAACAAAAATTA [XGTACX_site6285] | 11.5 ± 1.1 |
| AGGTGAATATTTTTTACACACATAAAAAAAATATAT [CACACA_site57] | 10.1 ± 0.092 |
| TTTAAGATTTTGTAATGTACATATATACATATATAT [XGTACX_site399] | 11 ± 0.66 |
| TATTTTTATAAGAGCATGCACTGTTTAAAATGGTAT | 10.1 ± 0.23 |
| TTTTTTAAAATATGGACACACATATATATATATGTA [CACACA_site2784] | 11 ± 0.64 |

| Sequence | gcPBM binding intensity (ln) |
| --- | --- |
| AATCAAAATTCATTAACACACAATTTTAATATTCTT [CACACA_site5178] | 9.84 ± 0.085 |
| TTTATTTATTTATGTTGTACAAGTTTATACTGGAAT [XGTACX_site6479] | 11.4 ± 0.96 |
| TTTTAACAAAACAAAACAAAATAATATAAAGATAAC [TGCATGCA_negctrl_site154] | 10.02 ± 0.071 |
| ATGATATGGATAAATACACACAATAAAATAATGTCT [CACACA_site6786] | 10.02 ± 0.042 |
| CAGTATTCTTCTATATGTACTTATTTAAATATTCTT [XGTACX_site7555] | 11.3 ± 0.83 |
| TAAATAATAATAAATGTGCACAGGTATTAACAAAAA [GTGCAC_site9988] | 10.27 ± 0.085 |
| TTTTGATATAAAAAAAGTACATTAATAATATTAATT [XGTACX_site4248] | 11.4 ± 0.98 |
| TATGTATAAAAATATTGTACATATTATATATATATA [XGTACX_site2947] | 11 ± 0.67 |
| TTAACATATGACATTTTTTCACCCTTCCTTTATTTT [CACACA_negctrl_site1192] | 9.89 ± 0.042 |
| ATAAAATCATTCAATGGTACAGAAATACAAAATGTA [XGTACX_site6739] | 10.6 ± 0.36 |
| ATAATTTGATCAATTTTTCATTTTTCATTTTTTTAA [CACACA_negctrl_site1252] | 9.72 ± 0.21 |
| AATTAGCATTAAAAATGTACAAAAGAAAAAAATATA [XGTACX_site3816] | 10.8 ± 0.51 |
| GTCAAAAATAATATATGTACTTATAATAGATAAATG [XGTACX_site7755] | 11.3 ± 0.76 |
| TTTTTTTTTTTTTTTTTTTGATTCTTATAAAAATTT [GTGCAC_negctrl_site240] | 9.59 ± 0.42 |
| AGGTCACATTTGTCCTCACACATAGATAAATATATA [CACACA_site5460] | 10.9 ± 0.6 |
| AGAAAGAATGAAAAATGTACATATATGTAATAGCTA [XGTACX_site364] | 11 ± 0.61 |
| TAAAATTTAAAAAGGTGTACACTATAAATTAAAATA [XGTACX_site2081] | 11.7 ± 0.95 |
| ATACGTGGGCAAAAAGTGCATATAATCAAAAAAAAA [GTGCAC_site9961] | 10.6 ± 0.69 |
| ATATATATATTTGTATGTACATATCATATTGTGTGT [XGTACX_site1580] | 11.2 ± 0.73 |
| AAGATATTTGAATATACACACGATTTAAATTTAATA [CACACA_site3866] | 9.9 ± 0.014 |
| TGTTTTTAATTTCGCACACACCTTGTGGAAAAAAAA [CACACA_site4482] | 10.4 ± 0.47 |
| TTCTTTCTGTTTTATTTATAATAATTTATGATAAAA [CACACA_negctrl_site766] | 10 ± 0.2 |

| Sequence | gcPBM binding intensity (ln) |
| --- | --- |
| AAAATATTTATTACTTCACACATTATTGTATTTATA [CACACA_site5082] | 9.86 ± 0.16 |
| CATATATTATTATATGCACACATGAAAATATACAAA [CACACA_site2795] | 10.2 ± 0.2 |
| AAAGTTGTTACGAACATACACACGAACATACTCACG [CACACA_site604] | 10.23 ± 0.042 |
| TAGAATATCCCCTACACACCCAAATAATTTACAAAT [CACACA_site4825] | 10.18 ± 0.049 |
| GTATAACTTTTGCGCGTACACACATTTATCCTCTTT [CACACA_site208] | 11.7 ± 0.86 |
| TTTCTTTTTTTATAATCCACATTGGGAAAATCAAAA [TGCATGCA_negctrl_site159] | 10.1 ± 0.37 |
| ACGTATAATATGTACACACACATATATACAAAAAAA [CACACA_site917] | 11.5 ± 1.1 |
| TTTTTTTTTTTTTATTGTACTTATTTTTTTATGTTT [XGTACX_site7725] | 11.4 ± 1.1 |
| GTATTATATATATAGGTGCATATATATATATAAATA [GTGCAC_site9787] | 9.96 ± 0.16 |
| AAATATAAAGGATTAATATTATATATATATATATAT [XGTACX_negctrl_site211] | 9.9 ± 0.42 |
| TAAATAAATTTATACACACACACACGGATATAAATA [CACACA_site6532] | 10.2 ± 0.15 |
| TATAAATATTTATACACACACATATATTTATATATC [CACACA_site6366] | 10.07 ± 0.092 |
| ACACATACATATACATACACATTGTTTTCATGCATC [XGTACX_negctrl_site126] | 10.22 ± 0.057 |
| TATATGTGTCTACAGGTGCATATATCATATATTGCT | 9.865 ± 0.007 |
| ATTTTTTTTTTTTTTTTTTTTTTGTTTATACAAAAT [CACACA_negctrl_site1241] | 9.71 ± 0.11 |
| TATATACATACATGTAGTACCTAATTCGGTCCCGTA [XGTACX_site2702] | 11.3 ± 0.71 |
| TTTCATTTAGCTTTTACACACTATATATTATTGATT [CACACA_site16] | 9.82 ± 0.11 |
| TATGTATTTTTATGCACACATGCGTGGCTTATATAA [CACACA_site387] | 10.2 ± 0.15 |
| ATATTTTCTTTAAATTGTACATATTGTGATACAAAA [XGTACX_site5886] | 11 ± 0.59 |
| GTATTTATATGATTAACACACATATGGGTATTAATA [CACACA_site4853] | 10.1 ± 0.16 |
| TATACCTGAATTAAAAGTACATGTATATATTTTCCC [XGTACX_site3594] | 11.2 ± 0.7 |
| ATAATTTTTTAAGTGTGTACTAAAATGTGTATTTTA [XGTACX_site6227] | 11.3 ± 0.85 |
